Reference: article PMC10668032
Some of the results follow. At the low end of the ranking the order means little.

target: SIX1-Q177R homeodomain (UniProt Q15475); test: universal protein binding microarray; conditions: Universal all-10-mer PBM (8x60K, AMADID 030236), 300 nM GST-tagged protein, Alexa Fluor 488 anti-GST; buffer, salt, pH and temperature not stated; high values mean tight binding; most listed sequences are background and not binding sites; double strand, one strand shown

Row | Sequence | binding signal
1 | AGACAGAT | -0.271 E-score
2 | AGAGGCGC | -0.123 E-score
3 | AAAGTGGT | 0.00153 E-score
4 | AAGAAATG | -0.16 E-score
5 | ACGTAGGA | -0.129 E-score
6 | GGCCGTCA | -0.323 E-score
7 | AACTGGAT | -0.193 E-score
8 | GTTTAGGA | -0.0495 E-score
9 | GAACATTC | -0.322 E-score
10 | CGTGTGTA | 0.296 E-score
11 | AGCGCTTA | 0.0112 E-score
12 | AGCAGTTG | -0.203 E-score
13 | CACTCCGG | 0.344 E-score
14 | GAGTGATA | 0.0935 E-score
15 | AACCCTTG | 0.0963 E-score
16 | CCCTCCGC | 0.149 E-score
17 | CTACTTTC | -0.303 E-score
18 | CCGGGGCA | 0.0344 E-score
19 | GGATCACA | 0.168 E-score
20 | CACCGATC | 0.26 E-score
21 | CAGGGAGC | -0.0688 E-score
22 | TAGTACCA | -0.0137 E-score
23 | CTCGTGGA | -0.0361 E-score
24 | GGAAGAAC | 0.091 E-score
25 | AAGTTTGA | -0.188 E-score

Row | Sequence | binding signal
26 | CCAGTAGC | -0.0582 E-score
27 | ATAAGGTA | 0.12 E-score
28 | AATGAACG | 0.0143 E-score
29 | AAATGCCG | -0.0898 E-score
30 | CAGATCCC | 0.186 E-score
31 | CCATAACG | -0.0929 E-score
32 | CACGACCG | 0.225 E-score
33 | CTGGTCGC | -0.0976 E-score
34 | CAGGCTAA | 0.0625 E-score
35 | CGCAGTGA | -0.114 E-score
36 | GTCGGTGA | 0.0757 E-score
37 | CCATATCC | -0.0492 E-score
38 | AGTGCGGC | -0.143 E-score
39 | CGGACGAG | -0.148 E-score
40 | AACCCACT | 0.133 E-score
41 | ACTCGCCT | -0.071 E-score
42 | GATGGAGA | -0.0397 E-score
43 | CGAGCGAG | -0.0875 E-score
44 | TCTTGAAA | -0.147 E-score
45 | GACAAAGC | -0.129 E-score
46 | CACTCAAG | 0.264 E-score
47 | GACCACGA | -0.219 E-score
48 | GGCTCAAC | -0.09 E-score
49 | ACCGTAAA | 0.0506 E-score
50 | GCGAGGGA | 7e-05 E-score

Row | Sequence | binding signal
51 | AAGCCGGA | 0.0116 E-score
52 | ACTCAGGA | -0.0406 E-score
53 | TAAACCAA | -0.0514 E-score
54 | ACACCATG | 0.47 E-score
55 | ATGTGATC | -0.167 E-score
56 | CCGGACCC | 0.11 E-score
57 | GCAACGGC | 0.00356 E-score
58 | CCAGCAGG | -0.194 E-score
59 | CGACACCC | 0.488 E-score
60 | AACCAACC | -0.109 E-score
61 | AAAACCAC | -0.0815 E-score
62 | ACCCCCCT | 0.302 E-score
63 | GTTACATA | 0.0461 E-score
64 | AAAGATAT | -0.058 E-score
65 | ACACGGCC | 0.382 E-score
66 | CAGGAGTA | 0.125 E-score
67 | ACTTTAGC | -0.23 E-score
68 | GAGGGTCA | 0.0574 E-score
69 | ACCGCGAC | 0.075 E-score
70 | CCCTTCCG | -0.0208 E-score
71 | GAATGACA | 0.163 E-score
72 | CTTCACCA | -0.108 E-score
73 | CCATCCCA | 0.0203 E-score
74 | GCTCCGAC | 0.0832 E-score
75 | CACGATAG | 0.102 E-score

Row | Sequence | binding signal
76 | GGAGACAA | -0.015 E-score
77 | AAACACTT | 0.252 E-score
78 | CCAACACG | 0.377 E-score
79 | GGGTGAAA | 0.104 E-score
80 | GGTTACAC | 0.454 E-score
81 | ACGACTTG | 0.0231 E-score
82 | ACCCTCCA | 0.175 E-score
83 | CCTTTTAG | -0.176 E-score
84 | CCGTCTCG | -0.0499 E-score
85 | AACGCTTG | -0.13 E-score
86 | ACTTAGCA | -0.11 E-score
87 | AGGGAACA | 0.017 E-score
88 | CCTGCAGG | -0.0104 E-score
89 | ATCTACGC | -0.0231 E-score
90 | CAAATTTG | -0.202 E-score
91 | GGCGCGAA | -0.0172 E-score
92 | CCGACTGC | -0.116 E-score
93 | CGCTGTTC | -0.105 E-score
94 | GGACCTGA | -0.0389 E-score
95 | GGGGATAA | 0.00662 E-score
96 | CGCTCAAC | -0.108 E-score
97 | ACTCAACC | 0.014 E-score
98 | ACCAATAA | -0.083 E-score
99 | CCCCGCCA | 0.148 E-score
100 | TCTCGTCA | -0.217 E-score

Row | Sequence | binding signal
101 | ACCATAGC | 0.0649 E-score
102 | CGCTGGAC | -0.0295 E-score
103 | GGATGTTA | 0.105 E-score
104 | CACGAGAC | 0.154 E-score
105 | CCAAACCG | 0.0512 E-score
106 | GTATATAA | 0.0108 E-score
107 | CGCAACAG | -0.208 E-score
108 | AACCAATC | -0.0628 E-score
109 | CAAGGGCC | -0.0742 E-score
110 | AGGTCAGA | -0.158 E-score
111 | ACGCACCG | 0.177 E-score
112 | AAGGGTAG | 0.0837 E-score
113 | CCCACGGC | 0.0525 E-score
114 | GAATTAAA | -0.203 E-score
115 | CGACCATA | -0.0754 E-score
116 | CAAGTCCG | -0.117 E-score
117 | TAGCCCTA | -0.117 E-score
118 | GAAAAAAC | -0.235 E-score
119 | GCCAACGA | -0.223 E-score
120 | GAAGTGGA | 0.183 E-score
121 | AAATTAGA | -0.291 E-score
122 | AGGGCATA | -0.168 E-score
123 | AAAACGTC | -0.258 E-score
124 | ATATGGCG | -0.021 E-score
125 | CTTAGTTA | 0.0484 E-score

Row | Sequence | binding signal
126 | AGAGCTAT | -0.00673 E-score
127 | AGCTAGCC | -0.198 E-score
128 | AAGATTAC | -0.0274 E-score
129 | GGCTGTTA | -0.144 E-score
130 | AATTGACT | -0.0648 E-score
131 | ACTGACCG | -0.217 E-score
132 | AAGAATAG | -0.0491 E-score
133 | ACGAATCT | -0.0605 E-score
134 | AAACACTC | 0.321 E-score
135 | CGGCTAGC | -0.125 E-score
136 | AATCCGCA | 0.0515 E-score
137 | GCCGTTAA | -0.16 E-score
138 | ACACATGT | 0.128 E-score
139 | AAAATTGG | -0.227 E-score
140 | TCTGCGAA | -0.0447 E-score
141 | CGAAGCCG | -0.17 E-score
142 | GCAGAGAA | -0.218 E-score
143 | AACACAAA | 0.117 E-score
144 | AGGGGCCA | -0.0565 E-score
145 | AGTGGGTC | 0.102 E-score
146 | ATGCAGAG | 0.0955 E-score
147 | TATCTGGA | -0.174 E-score
148 | GACGAACA | 0.103 E-score
149 | CATCGAGG | 0.0851 E-score
150 | ACGCTCCG | -0.0822 E-score

Row | Sequence | binding signal
151 | AAGAGATA | -0.155 E-score
152 | CGCTGACG | -0.109 E-score
153 | ACTTGTAT | 0.0598 E-score
154 | CGGCAACC | -0.12 E-score
155 | CCTTCTCG | 0.0593 E-score
156 | GGCGAGAA | -0.221 E-score
157 | GAACATCC | 0.0607 E-score
158 | AAGGCATT | -0.0796 E-score
159 | AATCGTCA | 0.0402 E-score
160 | GTTACTAA | -0.011 E-score
161 | TAGCATAA | 0.01 E-score
162 | CTTAATTC | -0.139 E-score
163 | GAATACCC | 0.159 E-score
164 | GCTGATCA | -0.167 E-score
165 | GGAGACGA | -0.08 E-score
166 | CCGGAGAA | -0.0526 E-score
167 | AATCTCTG | 0.0428 E-score
168 | AAACTTTG | -0.0062 E-score
169 | CATCGTAC | -0.0343 E-score
170 | CGTTTTGC | -0.256 E-score
171 | CAAGTAGC | -0.211 E-score
172 | CGTGTGAG | 0.276 E-score
